{"source": "PubChem BioAssay (Tox21)", "note": "Values joined by “and” are separate entries in the source; they are usually repeats but may differ in a detail not shown here. Equal entries are not always repeated. Inconclusive results, whose numbers are uncertain, are shown with a selection of clear calls. Potencies of inconclusive entries are doubtful fits and often do not repeat. Where a structure was tested more than once in an assay, its records may differ in their call. Active and inactive are the calls of the source. The call rests on the fitted dose curve; in most records, active means well fitted activation curve with a large enough effect in the repeat runs; inconclusive means weak or mixed curves; inactive means flat fitted curve, though single readings scatter. Potency means the concentration at half of the fitted maximal effect; tags describe the fitted curve by direction and shape.", "data": [{"test": "A CellTox Green Cytotoxicity Assay to monitor cytotoxicity in HepG2 cells - 8 hour (AID 1224890); further: nearly all actives have a fitted effect of over 45% in size", "conditions": "CellTox Green fluorescence; series mostly up to 76.8 µM", "method_in_brief": "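Cytotoxicity was tracked as dead-cell DNA fluorescence in HepG2 cells treated with test compounds at 37 C; each time-point value comes from one kinetic series spanning 0, 8, 16, 24, 32 and 40 h.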", "values": [{"compound": "N[C@@H](CSSC[C@H](N)C(=O)O)C(=O)O", "Potency": "inconclusive: 0.107 µM [activator, single point]"}, {"compound": "CN(Cc1cc(Br)cc(Br)c1N)C1CCCCC1", "Potency": "inconclusive: 21.3 µM [activator, partial curve, poor fit]"}, {"compound": "Nc1nnnn1-c1ccccc1", "Potency": "inconclusive: 9.52 µM [activator, single point]"}, {"compound": "O=C1OC2(c3ccc(O)cc3Oc3cc(O)ccc32)c2ccc(N=C=S)cc21", "Potency": "active: 15.8 µM"}, {"compound": "NS(=O)(=O)O", "Potency": "inconclusive: 49 µM [activator, partial curve]"}, {"compound": "C[C@]12CCC(=O)C=C1CC[C@@H]1[C@@H]2[C@@H](O)C[C@@]2(C)[C@H]1CC[C@]2(O)C(=O)COC(=O)CCC(=O)O", "Potency": "inconclusive: 0.213 µM [activator, single point]"}, {"compound": "CCCCCCCCCCC[C@@H](C[C@@H]1OC(=O)[C@H]1CCCCCC)OC(=O)[C@H](CC(C)C)NC=O", "Potency": "inactive"}, {"compound": "O=c1n(CCCN2CCN(c3cccc(Cl)c3)CC2)nc2ccccn12", "Potency": "inconclusive: 49 µM [activator, partial curve, poor fit]"}, {"compound": "CCCN(CCc1cccs1)[C@H]1CCc2c(O)cccc2C1", "Potency": "inconclusive: 21.3 µM [activator, partial curve]"}, {"compound": "CCCCCCCCCCCCN1CCCCCC1=O", "Potency": "inconclusive: 54.9 µM [activator, single point]"}, {"compound": "O=C(Cl)c1cc(C(=O)Cl)cc(C(=O)Cl)c1", "Potency": "inconclusive: 54.9 µM [activator, single point]"}, {"compound": "CC(=O)Nc1ccc(S(=O)(=O)Cl)cc1", "Potency": "inactive"}, {"compound": "Nc1nc(-c2ccccc2)c(Br)c(=O)[nH]1", "Potency": "inconclusive: 0.0952 µM [activator, single point]"}, {"compound": "c1ccc2sc(SSN3CCOCC3)nc2c1", "Potency": "inconclusive: 54.9 µM [activator, single point]"}, {"compound": "C=C[C@](C)(O)CC[C@@H]1[C@@]2(C)CCCC(C)(C)[C@@H]2CC[C@@]1(C)O", "Potency": "active: 54.9 µM"}, {"compound": "C=CC(C)(CCC=C(C)C)OC(=O)/C=C/c1ccccc1", "note": "(stereo not given)", "Potency": "active: 43.6 µM"}, {"compound": "CCCCCc1ccc(N)cc1", "Potency": "inconclusive: 69.2 µM [activator, partial curve, poor fit]"}, {"compound": "O=C(Oc1ccccc1)c1ccccc1O", "Potency": "inconclusive: 49 µM [activator, partial curve, poor fit] and inconclusive: 26.8 µM [activator, single point]"}, {"compound": "CC(C(=O)O)c1ccc(-c2ccccc2)c(F)c1", "note": "(stereo not given)", "Potency": "inconclusive: 54.9 µM [activator, partial curve, poor fit]"}, {"compound": "CC(O)C#CC(C)O", "note": "(stereo not given)", "Potency": "inactive"}, {"compound": "CN1CCC(N(Cc2cccs2)c2ccccc2)CC1", "Potency": "inconclusive: 16.9 µM [activator, partial curve, poor fit]"}, {"compound": "C#C[C@]1(O)CC[C@H]2[C@@H]3CCc4cc(OC5CCCC5)ccc4[C@H]3CC[C@@]21C", "Potency": "inconclusive: 26.8 µM [activator, single point]"}, {"compound": "CNCC[C@H](Oc1cccc2ccccc12)c1cccs1", "Potency": "inconclusive: 26.8 µM [activator, single point]"}, {"compound": "CC(C)c1ccc(O)c(C(C)C)c1", "Potency": "active: 43.6 µM"}, {"compound": "CCCCCCCCCCCCCCCCOP(=O)([O-])OCC[N+](C)(C)C", "Potency": "inconclusive: 26.8 µM [activator, single point]"}, {"compound": "Cc1cccc(C)c1NC(=O)C(C)N", "note": "(stereo not given)", "Potency": "active: 21.3 µM"}, {"compound": "NC(=O)NC1NC(=O)NC1=O", "note": "(stereo not given)", "Potency": "inactive and inconclusive: 54.9 µM [activator, single point]"}, {"compound": "CCCCCCCCCCCCCCCCCCOS(=O)(=O)O", "Potency": "inconclusive: 61.6 µM [activator, single point]"}, {"compound": "COc1ccc(C(=O)CC(=O)c2ccc(C(C)(C)C)cc2)cc1", "Potency": "active: 0.0756 µM"}, {"compound": "CC(C)CCCCCCc1ccc(OCCOCCO)cc1", "Potency": "inactive"}, {"compound": "CC(Cc1cccc(C(F)(F)F)c1)NCCOC(=O)c1ccccc1", "note": "(stereo not given)", "Potency": "inconclusive: 26.8 µM [activator, single point]"}, {"compound": "CCCCCCc1ccc(N)cc1", "Potency": "inconclusive: 54.9 µM [activator, single point]"}, {"compound": "Oc1ccc(Oc2ccccc2)cc1", "Potency": "inconclusive: 46.5 µM [activator, single point]"}, {"compound": "COc1c(C)c2c(c(O)c1C/C=C(\\C)CCC(=O)O)C(=O)OC2", "Potency": "inactive"}, {"compound": "CCCC(C)c1ccccc1O", "note": "(stereo not given)", "Potency": "inconclusive: 61.6 µM [activator, single point]"}]}]}
